Measured values as given in publication PMC7819943, “Rice protein-binding microarrays: a tool to detect cis-acting elements near promoter regions in rice”.
This is one part of the list.

molecular target: T1, OsWOX13 (Oryza sativa, UniProt Q5QMM3 1-267); test: protein-binding microarray (RPBM); PBS, 2% BSA, 51.3 ng/ul salmon testes DNA, 50 uM zinc acetate, 200 nM TF, 25 C, 1 h; high values mean tight binding; conditions: protein: recombinant; tags: N-terminal polyhistidine and DsRed monomer fusion (pET32a); label: CyDye5-dUTP incorporated in the synthesized complementary strand; 3' TTTTT single-stranded linker to array surface; dsDNA, one strand shown
T1 sequence: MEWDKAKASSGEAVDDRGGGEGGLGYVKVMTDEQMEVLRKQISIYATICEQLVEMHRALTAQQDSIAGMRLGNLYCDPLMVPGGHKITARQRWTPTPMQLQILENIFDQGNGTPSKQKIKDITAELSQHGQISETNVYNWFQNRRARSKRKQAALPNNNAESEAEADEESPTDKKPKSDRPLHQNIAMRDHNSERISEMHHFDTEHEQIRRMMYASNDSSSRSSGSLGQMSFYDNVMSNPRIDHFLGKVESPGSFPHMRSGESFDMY
Summary of the method: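 Per-feature fluorescence intensity (arbitrary units), read on an Axon 4000B scanner, is the binding signal. Transcription factors carrying an N-terminal polyhistidine tag and DsRed fusion were expressed in E. coli BL21-CodonPlus and purified on Ni–NTA. A custom Agilent array, made double-stranded by primer extension with Cy5-dUTP and blocked with 2% BSA, was incubated with 200 nM protein in PBS, 2% BSA, salmon testes DNA and 50 µM zinc acetate at 25 °C for 1 h and then washed.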

Sequence | binding signal
TGGTAACTAAACTGCCATGTCAGGGACAGATCGACCAGTGCGGAGTCACCTAGTGCAG | 4990 fluorescence intensity (a.u.)
ACACTAACAAATCAATTTTCTCTACCCACCACTCCTGAATCGGAGTCACCTAGTGCAG | 8890 fluorescence intensity (a.u.)
CCTAACAGTGATTTCACCTTGTTACTCTGCAGGTGGCCGACGGAGTCACCTAGTGCAG | 18600 fluorescence intensity (a.u.)
TTGATTAAGTTTATAGATAAATATAGTAATATTTACAGTACGGAGTCACCTAGTGCAG | 10000 fluorescence intensity (a.u.)
AATAGATTATATACAATAAACAAACGGACATTCACTCGCGCGGAGTCACCTAGTGCAG | 9220 fluorescence intensity (a.u.)
ACAGGCTGATTAAACAAGGTTTGCGCAATTTCACTTACCACGGAGTCACCTAGTGCAG | 4490 fluorescence intensity (a.u.)
TCTGATCATCTTTAATTTCTTAGATGACTAGTTTTAAAACCGGAGTCACCTAGTGCAG | 11000 fluorescence intensity (a.u.)
TTCTGATAGGGAGGTAGTACATACTCTCTCTACTCCAAAACGGAGTCACCTAGTGCAG | 3600 fluorescence intensity (a.u.)
TATAAACTCTGATTTAATTATTTCTGAAGTAAACTTATTTCGGAGTCACCTAGTGCAG | 13600 fluorescence intensity (a.u.)
GTTTTCCTAATTAATTGCTAGCTCGATTTGCTCGGTGATCCGGAGTCACCTAGTGCAG | 29900 fluorescence intensity (a.u.)
TATGGTTATAATTTTATTGATATAAATAGTATATAAGAAACGGAGTCACCTAGTGCAG | 3500 fluorescence intensity (a.u.)
TCTAGGATTTAAATTTATACACAATATAAATACTCTAAGACGGAGTCACCTAGTGCAG | 3590 fluorescence intensity (a.u.)
TTGTCCATCACAATTGCTAATTAACTAAGACACCCTTCCTCGGAGTCACCTAGTGCAG | 21100 fluorescence intensity (a.u.)
ACTGATTACTTAATTGGAAATTTGGAATGATTCAATCCATCGGAGTCACCTAGTGCAG | 41500 fluorescence intensity (a.u.)
TGTATCAATTGACACATTCTATATTATGAAGATAAGTACCCGGAGTCACCTAGTGCAG | 16000 fluorescence intensity (a.u.)
ATTTATTTTGTGATTGTATGGAGAGCTTCTCTCAGAAGTCCGGAGTCACCTAGTGCAG | 4770 fluorescence intensity (a.u.)
TATAAATTTATCTAAAGTAACAACTTTCATAATTTATTGTCGGAGTCACCTAGTGCAG | 16400 fluorescence intensity (a.u.)
GTTCATTCGCATAATTGCCTCAATCTATTGTGTGTTCATACGGAGTCACCTAGTGCAG | 10800 fluorescence intensity (a.u.)
AGCCTAATTAATCCGATATTAGTAAATGTTTACTGTAGCACGGAGTCACCTAGTGCAG | 15000 fluorescence intensity (a.u.)
TTTTATAAATTTATAGTACTAATACTAACAATTAAAACTCCGGAGTCACCTAGTGCAG | 7430 fluorescence intensity (a.u.)
ATTAATTGTGAAGAGCTAACTATTATATGGATAGGATGAGCGGAGTCACCTAGTGCAG | 34400 fluorescence intensity (a.u.)

Sequence | binding signal
CAAAATGGGATTAGAACCGTTCTATCTTGGTAGGTAAGATCGGAGTCACCTAGTGCAG | 3870 fluorescence intensity (a.u.)
TATTCTAATTTGTTGTATCATATCCCATTCCGATCGTTTACGGAGTCACCTAGTGCAG | 8640 fluorescence intensity (a.u.)
TATTCTAAATTAACTCTAATTCGAGTATTCAACCGACATCCGGAGTCACCTAGTGCAG | 8800 fluorescence intensity (a.u.)
ATGTAAACTGCAAATGATATTCTAGAGATGAAAAGCTCAGCGGAGTCACCTAGTGCAG | 9830 fluorescence intensity (a.u.)
TCTATATGAAATCAATCAATTCGAATATTCAAATTCTAAACGGAGTCACCTAGTGCAG | 4930 fluorescence intensity (a.u.)
AATTGATTATACACAAGTTCCTATAGAAGATACATATAACCGGAGTCACCTAGTGCAG | 9410 fluorescence intensity (a.u.)
TTGTTATATTGACATATTCGCATGGTAGTAACTAATTGCGCGGAGTCACCTAGTGCAG | 17000 fluorescence intensity (a.u.)
TGTCAAATCATGACGCAATTAGGCTCAGAAGATTCGTCTCCGGAGTCACCTAGTGCAG | 13000 fluorescence intensity (a.u.)
AGAGAATGACAGATTGGCCCGATCGATTTGTTCTCCGGCACGGAGTCACCTAGTGCAG | 30400 fluorescence intensity (a.u.)
AGCAAATCACAGATCAATTTGTACCAGTACATCTATAAGACGGAGTCACCTAGTGCAG | 14700 fluorescence intensity (a.u.)
TTATACAGATTGCGACTAATTTGCGAGACGAATCTTTTAACGGAGTCACCTAGTGCAG | 12300 fluorescence intensity (a.u.)
CCCTCTCATCCTTAGGTTTGATTGTTGAGTACGAGCCAAACGGAGTCACCTAGTGCAG | 3420 fluorescence intensity (a.u.)
ATATATATATATATATATATATATATATATATATATATATCGGAGTCACCTAGTGCAG | 3960 fluorescence intensity (a.u.)
ATATGATATGATATGATATGCACGCACAGAAACCGTATAACGGAGTCACCTAGTGCAG | 4500 fluorescence intensity (a.u.)
ATCACCTGATTACAAATTAAGCAGTTCCACTGAAACCATTCGGAGTCACCTAGTGCAG | 19100 fluorescence intensity (a.u.)
ATGGGTGATTATGCTCTTGATGAACTTCATCACGGTGTAGCGGAGTCACCTAGTGCAG | 32500 fluorescence intensity (a.u.)
GTAAACTTGTCACTCAGCTTTAACCACAAGATTACAGATACGGAGTCACCTAGTGCAG | 3410 fluorescence intensity (a.u.)
TATACAATACATAGATAGATAGATAGCTTGAATTGAAGGGCGGAGTCACCTAGTGCAG | 5940 fluorescence intensity (a.u.)
ACTTGATTGAAATCGAAGCATCTGTTTTCGCGTGTTTGAGCGGAGTCACCTAGTGCAG | 59900 fluorescence intensity (a.u.)
GCCATGATTTATGAGATCAAGTAGTGGTCACTTTATATACCGGAGTCACCTAGTGCAG | 6470 fluorescence intensity (a.u.)
TGTTGACTGTTATTTTATTTATCTCTCGCCTAAATAAGTACGGAGTCACCTAGTGCAG | 12000 fluorescence intensity (a.u.)

Sequence | binding signal
GATAATGAAATTGCTATATATTTATCGACAAATTTTCTCTCGGAGTCACCTAGTGCAG | 12900 fluorescence intensity (a.u.)
AATAATTAGTGGTTTGCAGCTTACAAACTTACAATTTACACGGAGTCACCTAGTGCAG | 8430 fluorescence intensity (a.u.)
TTTATATTGATTATAAATGAAATGTCTTATTAGCGATTGACGGAGTCACCTAGTGCAG | 36900 fluorescence intensity (a.u.)
ACTGCACGTGATTGGTCCTTAAAGGTGGCCGTGCTCGGGTCGGAGTCACCTAGTGCAG | 43700 fluorescence intensity (a.u.)
GTTAACCATTTTCACTTTAATTTGTCCTTTCGATTGCAACCGGAGTCACCTAGTGCAG | 4680 fluorescence intensity (a.u.)
ATTATCTAATTTATCATCCAAAATCAACGAACAAAGCAGTCGGAGTCACCTAGTGCAG | 7380 fluorescence intensity (a.u.)
CAATTAATTTCAATTGCAGCAAATTTACTTTCTTCAAGCTCGGAGTCACCTAGTGCAG | 33700 fluorescence intensity (a.u.)
CAGTATCCAAATTTAAATTTTCAAACTTAACTTGTAAGTTCGGAGTCACCTAGTGCAG | 4450 fluorescence intensity (a.u.)
GATTGATGGAGACTGCTAGATGCAAACGTGTCCAAACTGCCGGAGTCACCTAGTGCAG | 21300 fluorescence intensity (a.u.)
GTTCAAATTATTTGTTCTGCGATTACTAGATATAAGCTAACGGAGTCACCTAGTGCAG | 10700 fluorescence intensity (a.u.)
ATTATTATTAATAATAATTTTATGGGCCATCTATTTATTTCGGAGTCACCTAGTGCAG | 5520 fluorescence intensity (a.u.)
CCAATGATTCACATCAACAGAATGACTATCGAAACTTATGCGGAGTCACCTAGTGCAG | 5310 fluorescence intensity (a.u.)
AGATTCTATCTGCTAATCATATGAAAGTAATAGAAATGTCCGGAGTCACCTAGTGCAG | 3320 fluorescence intensity (a.u.)
CATTGGATTGCAAAATCTACTGAATGATAAACAAAGGATTCGGAGTCACCTAGTGCAG | 3410 fluorescence intensity (a.u.)
GAGCCTAATTAATTCGTGATTAGCCTAATGACGGATTAATCGGAGTCACCTAGTGCAG | 57400 fluorescence intensity (a.u.)
ACCTAACAGAATTAATCACAAGCAAGGAGAGCTAGCAGGCCGGAGTCACCTAGTGCAG | 25100 fluorescence intensity (a.u.)
TAATTAATTATAAGCTAATGAATCCCTATTTTAGATACTCCGGAGTCACCTAGTGCAG | 35500 fluorescence intensity (a.u.)
TTCAAATTTTGATTTTAAAATTTGAATCGAAAATTTTCAACGGAGTCACCTAGTGCAG | 10900 fluorescence intensity (a.u.)
TTTTGAAATTTATTTATTTATTGAAAGAATCGAGGATGTTCGGAGTCACCTAGTGCAG | 4270 fluorescence intensity (a.u.)
AGTAGTAATTATATACCATCAGATATATAGACAGTACTTTCGGAGTCACCTAGTGCAG | 6840 fluorescence intensity (a.u.)
TAACAGATTGGAGGAGGAGCAGGAGTACTCACGTATTACCCGGAGTCACCTAGTGCAG | 8000 fluorescence intensity (a.u.)

Sequence | binding signal
CGGCCCAGGTGGGAGAGGAGGGGAGGGGAGGGGAGGGATGCGGAGTCACCTAGTGCAG | 6460 fluorescence intensity (a.u.)
AACGCAATCTAAACCCCATAATTTAACATAATAACAAAATCGGAGTCACCTAGTGCAG | 5740 fluorescence intensity (a.u.)
CCCATATTGCTGATTTCACTTAATTTGTCCTCTCTGTTCTCGGAGTCACCTAGTGCAG | 9610 fluorescence intensity (a.u.)
TTTGATTTACCATGCTTTTGAGTTCTACAACCACATCTCACGGAGTCACCTAGTGCAG | 15300 fluorescence intensity (a.u.)
CGCTTAAATGACTGAATTAATGCTAACCCTGTTCCAGCTCCGGAGTCACCTAGTGCAG | 36200 fluorescence intensity (a.u.)
GCGTGATTTAAACTCGACGTCAAGAAGAGGAATCTAAAGTCGGAGTCACCTAGTGCAG | 16100 fluorescence intensity (a.u.)
CCTAATTTCTATTTCTCTAATCCTAGTCTCATGCTTCTGCCGGAGTCACCTAGTGCAG | 21800 fluorescence intensity (a.u.)
AACATAATTATGAGACGAGAAGAAGCAGAACACCATGTTGCGGAGTCACCTAGTGCAG | 14700 fluorescence intensity (a.u.)
ATTGACAGGCGAGGGATATTTGCAGAAAGAACCCTGGGTACGGAGTCACCTAGTGCAG | 12400 fluorescence intensity (a.u.)
TCAAACCAATTCTTTGATTAAATCATTTGCATAGCCAATTCGGAGTCACCTAGTGCAG | 3790 fluorescence intensity (a.u.)
CATACAGCTGTTGATTGTTTATCCCTATGTATAAGCCAGCCGGAGTCACCTAGTGCAG | 15000 fluorescence intensity (a.u.)
ATGGATGTACTATGATTTGATTTTAATTTTCAACACCTGCCGGAGTCACCTAGTGCAG | 16800 fluorescence intensity (a.u.)
GGGAGAGAATGTGCTAATTAATTGCATGCATGCATGCACGCGGAGTCACCTAGTGCAG | 12000 fluorescence intensity (a.u.)
TCAACTGAATTTACAAATGTAAATTTAGTTATATAGGATTCGGAGTCACCTAGTGCAG | 4360 fluorescence intensity (a.u.)
AAACTAAATTTATAAATTGGAGCTCTACAAGGACCTAAAACGGAGTCACCTAGTGCAG | 26900 fluorescence intensity (a.u.)
CTGATTTGACTGAATGAATGAATTAATTAATGAGATGTATCGGAGTCACCTAGTGCAG | 61600 fluorescence intensity (a.u.)
ACTAATTTGATATGAAAGTTGGACTTCTCATTGCAGCTCACGGAGTCACCTAGTGCAG | 23300 fluorescence intensity (a.u.)
TAAACTCCAAGTTGATTATCCAACGAATCGTAGCCTCGAGCGGAGTCACCTAGTGCAG | 5690 fluorescence intensity (a.u.)
AATGTGGACAATTCAATCAAAATCTCTTATATTTAGGGACCGGAGTCACCTAGTGCAG | 7540 fluorescence intensity (a.u.)
ATTACTAATTACTGTATGTTACTTGACTAAACAACCTATGCGGAGTCACCTAGTGCAG | 27700 fluorescence intensity (a.u.)
AATTGAATGGCTAATTAAGAGACCAAGTCTTTCACACCATCGGAGTCACCTAGTGCAG | 15300 fluorescence intensity (a.u.)
